# Experimental data as given in PubChem BioAssay AID463173 (ICCB-Longwood Screening Facility, Harvard Medical School, 2010).
# Screen size: about 52,000 compounds; about 4,300 (8.3%) were called active. Rule as the data show it: active = survival mostly below about 52% (no sharp cut-off); inactive = mostly above about 56%. This is one part of the list.
# Tested on: DeltatarO mutant
# Assay: S. aureus survival, RN4220 and DeltatarO strains – OD600, teichoic acid synthesis inhibitors, primary screen (AID 463173)
# Conditions: S. aureus RN4220 wild type/DeltatarO growth, OD600, 18 h, hits give low values, screened at 18.75 µg/mL (by protocol)
row,SMILES,survival
1,CCCCNC(=O)C1=CC(c2ccc3c(c2)OCO3)=NS(=O)(=O)N1C,inactive: 85%
2,O=C1c2[nH]nc(-c3ccccc3)c2C(c2ccccc2)N1c1cccc(C(F)(F)F)c1 (centres undefined),active: 20%
3,CCCc1cc(=O)n2[nH]c(NCc3ccc(CC)cc3)nc2n1,inactive: 79%
4,O=C1SC(Nc2ccc(Cl)cc2)C(=O)N1Cc1ccccc1 (centres undefined),inactive: 107%
5,Cc1c(Cl)cccc1Nc1nc(N)nc(CSc2nc3ccccc3s2)n1,active: 24%
6,Cc1ccc(NC(=O)CCCn2c3ccccc3c(=O)c3cc(C)ccc32)c(Br)c1,active: 38%
7,CC1CCN(S(=O)(=O)c2ccc3c(c2)N(CC(=O)NCCc2ccc(Cl)cc2)C(=O)CO3)CC1,inactive: 87%
8,CCOC(=O)c1c(C)[nH]c(C)c1S(=O)(=O)N1CCC(C(=O)N2CCN(c3cc(C)ccc3C)CC2)CC1,inactive: 70%
9,O=C1CS(=O)(=O)C2(C(=O)N(Cc3ccc(F)cc3)c3ccccc32)N1c1cccc(C(F)(F)F)c1 (centres undefined),inactive: 124%
10,O=C(CSc1nnc(-c2ccc(Cl)cc2)o1)N1CCc2ccccc21,inactive: 96%
11,Cc1ccc(Cn2cnc3c(oc4ccccc43)c2=O)cc1,inactive: 89%
12,Cc1cc(C)cc(NC(=O)C(NS(=O)(=O)c2cccc3nsnc23)c2ccccc2)c1 (centres undefined),inactive: 80%
13,CCOC(=O)N1CCN(C(=O)c2ccc3c(c2)N(Cc2cc(C)ccc2C)C(=O)c2ccccc2S3=O)CC1 (centres undefined),inactive: 64%
14,COc1ccc(CCNC(=O)CCc2cn(Cc3ccc(C)cc3)c3ccccc23)cc1OC,inactive: 62%
15,CCCCOc1nnc(-c2ccc(OCC)cc2)c2ccccc12,active: -12%
16,CCOc1ccc(N(C)C(=O)C2CCN(S(=O)(=O)c3ccc4c(c3)CCCN4C(C)=O)CC2)cc1,inactive: 73%
17,CCC(Sc1nc2ccncc2[nH]1)C(=O)Nc1ccc(F)cc1 (centres undefined),inactive: 128%
18,O=S(=O)(c1ccccc1)c1nnn2c1nc(Nc1ccccc1)c1cc(Cl)ccc12,inactive: 95%
19,Cc1ccc(Cl)cc1N1CCN(C(=O)Cn2ncc3c([nH]c4ccccc43)c2=O)CC1,inactive: 102%
20,COc1cccc(-n2c(=O)c3sc4ccccc4c3n(CC(=O)Nc3ccccc3OC)c2=O)c1,inactive: 65%
21,Cc1ccc(-n2nc(CO)c(C(=O)NCCc3ccccc3)n2)cc1,inactive: 86%
22,COc1cccc(C(C(=O)NC2CCCCC2)N(C(=O)c2ccccn2)c2cccnc2)c1 (centres undefined),inactive: 81%
23,Cn1ccnc1SCC(=O)N1c2ccccc2-c2c(ssc2=S)C1(C)C,inactive: 99%

row,SMILES,survival
1,Cc1ccc2c(c1)c1c3n2CCN(C(=O)CN2CCN(C(=O)c4ccco4)CC2)C3CCC1 (centres undefined),inactive: 56%
2,COc1ccccc1-c1cc(C(F)(F)F)nc(S(=O)(=O)CCCC(=O)Nc2cc(C)ccc2O)n1,active: 47%
3,Cc1ccc2c(=O)c(C(=O)c3ccc(F)cc3)cn(CC(=O)NC3CCCCC3)c2n1,inactive: 55%
4,CCOc1ccc(CNC(=O)c2cc3c(=O)n(Cc4cccs4)ccc3nc2C)cc1,inactive: 112%
5,COC(=O)c1cc(S(=O)(=O)N2CCN(c3cccc(C)c3)C(C)C2)c[nH]1 (centres undefined),inactive: 77%
6,CC(=O)Nc1ccc(S(=O)(=O)Nc2ccc(-c3cn4c(C)csc4n3)cc2)cc1,inactive: 89%
7,CCc1c(C)sc(NC(=O)c2cc(-c3ccc(OC)cc3)on2)c1C#N,active: 50%
8,CCCCn1c2ccccc2c2nnc(SCC(=O)Nc3ccc(NC(C)=O)cc3)nc21,inactive: 69%
9,Cc1oc2ccc(O)c(CN(C)Cc3ccccc3)c2c1C(=O)Nc1cccc(Cl)c1C,active: 11%
10,O=C(Nc1onc2c1CCCC2)c1ccc(Cl)cc1,inactive: 77%
11,CCc1nc2nc(C)cc(Nc3ccc(Br)cc3F)n2n1,inactive: 128%
12,CCCCn1c(=N)n(CC(O)COc2ccccc2)c2ccccc21 (centres undefined),inactive: 88%
13,Cc1ccccc1NC(=O)c1c2c(nc3ccccc13)C(=O)N(C1CCCCC1)C2,inactive: 105%
14,Cc1ccc(-n2c3nc(=O)[nH]c(=O)c-3cc3c(Cl)cccc32)cc1,inactive: 77%
15,Cc1ccc(NC(=O)c2sc(-n3nc(C)c(Cc4ccc(Cl)cc4)c3C)nc2C)cc1,inactive: 75%
16,Cc1ccc(Cn2ccnc2SCC(=O)Nc2ccc3c(c2)OCO3)cc1,inactive: 92%
17,Cc1ccc(C)c(NC(=O)N2CCN(C)c3ncccc32)c1,inactive: 92%
18,CCOc1ccc(NC(=O)c2c(NC(=O)Cc3ccccc3)sc3c2CCCC3)cc1,active: 45%
19,CCN(Cc1ccccc1)C(=O)Cn1c(=O)n(-c2ccc(OC)cc2OC)c(=O)c2c(C)c(C)sc21,inactive: 86%
20,CCOc1ccc(CNC(=O)c2ccc(-c3nc(CSc4ccc(C)cc4)c(C)o3)cc2)cc1,inactive: 79%
21,COc1ccc(Cl)cc1NC(=O)Cn1c(=O)n(Cc2ccco2)c(=O)c2ccc(C(=O)NC3CCCC3)cc21,inactive: 94%
22,COc1ccc2c(Sc3ccccc3)c(C(=O)NCc3ccc(OC(C)C)cc3)[nH]c2c1,inactive: 103%
23,COc1ccc(-c2nc3ccc(NS(=O)(=O)c4ccccc4)cc3o2)cc1,active: 36%

row,SMILES,survival
1,COc1cccc(CNC(=O)c2cc3n(n2)CCCN(Cc2ccc(C)cc2)C3=O)c1OC,inactive: 89%
2,Cc1cccc(-c2nnc3n(CCc4ccccc4)c(=O)c4ccccc4n23)c1,inactive: 75%
3,CCOc1ccc(-n2c(SCC(=O)NCc3ccco3)nc3c([nH]c4ccccc43)c2=O)cc1,active: 37%
4,Nc1ccc(CN2C(=O)c3ccccc3C2=O)cc1,inactive: 91%
5,CCOc1ccccc1NC(=O)c1cc(=O)c2ccc(C)cc2o1,active: 44%
6,COc1ccc(NC(=O)CSc2oc(-c3cccs3)nc2S(=O)(=O)c2ccc(C)cc2)c(OC)c1,inactive: 63%
7,O=C(Cc1cccs1)NC1CC(=O)N(c2cccc(F)c2)C1 (centres undefined),inactive: 88%
8,COc1ccc(C2(Nc3cccc(C(=O)O)c3C)C(=O)c3ccccc3C2=O)cc1,inactive: 80%
9,O=C(/C=C\c1ccc2c(c1)OCO2)NC1CC(=O)N(c2ccc(Cl)cc2)C1 (centres undefined),inactive: 84%
10,Cc1ccc(NC(=O)C2CCN(S(=O)(=O)c3c(C)noc3C)CC2)c(C)c1,inactive: 109%
11,COc1ccc(-c2csc3nc(-c4ccccc4C)oc(=O)c23)cc1OC,inactive: 59%
12,CC(=O)N1CCOc2cc(S(=O)(=O)NCc3ccc(C)cc3)c(Cl)cc21,inactive: 76%
13,O=C(O)CSC1=NCCN1,inactive: 79%
14,FC(c1nc2ccccc2[nH]1)C(F)(F)F (centres undefined),inactive: 78%
15,CCOc1ccccc1NC(=O)CSc1nc(=O)[nH]c2c1CCCC2,inactive: 66%
16,O=C(CS(=O)(=O)c1cccc2nsnc12)Nc1ccccc1,inactive: 80%
17,COc1ccccc1CNC(=O)CN1C(=O)COc2ccc(S(=O)(=O)Nc3ccccc3)cc21,inactive: 118%
18,CSCCC(NS(=O)(=O)c1ccc2c(c1)oc(=O)n2C)C(=O)N1CCN(c2cc(C)ccc2C)CC1 (centres undefined),inactive: 57%
19,COc1ccc(C2CC(=O)NC(NC(=O)c3ccc(Br)cc3)=N2)c(OC)c1OC (centres undefined),inactive: 86%
20,CC(C)(C)c1ccc(C(=O)NCCc2csc3nc(-c4ccccc4F)nn23)cc1,inactive: 84%
21,COc1cccc(C(=O)Nc2ccc3nc(SCC(=O)N4CCOCC4)sc3c2)c1,inactive: 65%
22,Cn1c(=O)n(C)c2cc(NS(=O)(=O)c3ccc(F)cc3)ccc21,inactive: 87%
23,Cc1cc(C)n2c(Nc3ccc(Cl)cc3)c(-c3ccsc3)nc2n1,inactive: 116%

row,SMILES,survival
1,CCCCS(=O)(=O)c1oc(-c2cccs2)nc1S(=O)(=O)c1ccccc1,active: -5%
2,Cc1ccc2c(CN3CCN(C(=O)c4ccc(F)cc4)CC3)cc(=O)oc2c1,active: 33%
3,CNc1nnc(-c2ccccc2)s1,inactive: 74%
4,Cc1ccc(OCC(=O)N(c2ccc(C)cc2)S(=O)(=O)c2ccc(Cl)cc2)cc1,inactive: 78%
5,Cc1cccc(C)c1NC(=O)Cn1c(=O)n(Cc2ccccc2)c(=O)c2c(C)c(C(=O)N(C)C)sc21,inactive: 94%
6,COc1ccc(Cl)cc1NS(=O)(=O)c1ccc2[nH]c3c(c2c1)CCCC3,inactive: 79%
7,Cc1ccc(-c2nc3sc(CCNS(=O)(=O)c4cc(F)ccc4F)c(C)n3n2)cc1,active: -2%
8,Cc1ccc(Cl)cc1-n1c(=O)cc(N2CCN(c3ccc(F)cc3)CC2)[nH]c1=O,inactive: 70%
9,Cc1cc(C)c2oc(C(=O)Nc3ccc(S(=O)(=O)N4CCCCC4)cc3)cc(=O)c2c1,active: 45%
10,COc1ccc(OC)c(NC(=O)Cn2cnc3ccc(S(=O)(=O)N4CCC(C)CC4)cc3c2=O)c1,inactive: 59%
11,O=C(Nc1cc(-c2nc3ccccc3s2)ccc1Cl)c1cc2ccccc2o1,inactive: 105%
12,CN(Cc1ccccc1)C(=O)c1ccc2c(c1)N(Cc1ccccc1F)C(=O)c1ccccc1S2(=O)=O,inactive: 81%
13,O=S(=O)(Nc1ccccc1C(F)(F)F)c1ccc(N2CCCCS2(=O)=O)cc1,inactive: 116%
14,CN(C(=O)CSc1nc2ccc(NC(=O)COc3ccc(Cl)cc3)cc2s1)c1ccccc1,inactive: 72%
15,CCCOc1cccc(NC(=O)c2c(-c3ccccc3Cl)noc2C)c1,active: 37%
16,O=C(Nc1cc2c(s1)CCCC2)c1ccccc1,active: 46%
17,CCOC(=O)c1cc(S(=O)(=O)Nc2ccc(C)cc2Cl)[nH]n1,inactive: 54%
18,COc1cccc(NC(=O)C2CCC(CNS(=O)(=O)c3ccc4c(c3)CC(C)N4C(C)=O)CC2)c1 (centres undefined),inactive: 85%
19,COc1ccc(CNC(=O)CSc2nc3ccccc3nc2Cc2ccccc2)cc1,inactive: 73%
20,O=C(CSc1nccn1Cc1ccco1)Nc1ccc(F)cc1,inactive: 72%
